# According to article PMC4336329 (PLoS ONE, 2015):
# Hit rate of the full screen: of about 310,000 compounds, about 14,000 (4.5%) showed an effect of 50% or more. Effects have a minus sign here. The list shows a part of the results.
# Target: human ether-à-go-go-related gene (hERG) potassium channel (human, UniProt Q12809)
# Assay: primary screen, population patch clamp on CHO cells stably expressing hERG
# 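Further: peak tail current of the secondary pulse compared with the same well before compound.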
# human ether-à-go-go-related gene (hERG) potassium channel, sequence (Q12809 whole entry, looked up): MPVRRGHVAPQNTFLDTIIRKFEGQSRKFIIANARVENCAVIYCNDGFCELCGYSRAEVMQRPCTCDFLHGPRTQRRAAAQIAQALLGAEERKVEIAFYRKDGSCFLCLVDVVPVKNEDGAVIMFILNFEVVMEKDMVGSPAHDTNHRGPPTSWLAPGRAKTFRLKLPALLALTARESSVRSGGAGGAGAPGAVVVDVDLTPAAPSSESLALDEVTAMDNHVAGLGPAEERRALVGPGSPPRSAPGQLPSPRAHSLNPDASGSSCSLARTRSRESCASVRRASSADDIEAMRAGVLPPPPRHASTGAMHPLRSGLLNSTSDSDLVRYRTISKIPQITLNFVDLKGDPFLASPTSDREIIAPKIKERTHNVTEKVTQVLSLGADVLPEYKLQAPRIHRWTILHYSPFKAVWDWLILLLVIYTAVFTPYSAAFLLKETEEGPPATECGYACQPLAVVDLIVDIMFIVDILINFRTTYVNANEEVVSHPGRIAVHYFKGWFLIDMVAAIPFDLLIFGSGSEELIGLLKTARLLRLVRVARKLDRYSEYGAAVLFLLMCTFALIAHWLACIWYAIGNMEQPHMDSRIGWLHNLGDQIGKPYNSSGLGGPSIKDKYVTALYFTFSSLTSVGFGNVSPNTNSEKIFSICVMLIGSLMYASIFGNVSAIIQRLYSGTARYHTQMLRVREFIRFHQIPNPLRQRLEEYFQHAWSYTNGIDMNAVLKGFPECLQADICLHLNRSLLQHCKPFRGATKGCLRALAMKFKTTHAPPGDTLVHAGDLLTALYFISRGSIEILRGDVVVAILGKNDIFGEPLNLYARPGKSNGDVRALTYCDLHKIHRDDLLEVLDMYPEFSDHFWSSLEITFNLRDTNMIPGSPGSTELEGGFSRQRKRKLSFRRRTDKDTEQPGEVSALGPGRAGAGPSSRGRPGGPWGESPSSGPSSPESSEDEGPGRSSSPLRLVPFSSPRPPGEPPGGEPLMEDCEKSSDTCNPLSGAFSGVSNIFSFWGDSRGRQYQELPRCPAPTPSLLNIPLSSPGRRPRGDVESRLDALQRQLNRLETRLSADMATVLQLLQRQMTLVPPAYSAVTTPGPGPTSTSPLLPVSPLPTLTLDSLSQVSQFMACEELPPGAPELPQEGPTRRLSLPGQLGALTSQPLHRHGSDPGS
row,Compound,"hERG current change (%, negative = inhibition) at 10uM"
1,S=c1[nH]nc(-c2ccncc2)n1/N=C/c1cccc(Cl)c1,15.8%
2,O=C(NNC(=O)c1cc(C(F)(F)F)cc(C(F)(F)F)c1)c1ccc(Cl)cc1,4.89%
3,O=C(OCC(=O)N1CCC(Cc2ccccc2)CC1)c1ccccc1,8.88%
4,Cc1c(C(=O)NCc2ccccn2)sc2nc(-c3ccccc3)cn12,-18.6%
5,CCCCCC(=O)Nc1c(-c2ccc(OC)cc2)c(=O)c2ccccc2n1C,14.9%
6,O=C(c1cccc(S(=O)(=O)N2CCOCC2)c1)N1CCN(C/C=C/c2ccccc2)CC1,-46.3%
7,CC(=O)N1CCC(C(=O)Nc2cc(C)cc(C)c2)CC1,3.74%
8,O=S(=O)(c1cccs1)N1CCC(CO)(Cc2cccc(F)c2)CC1,-46.2%
9,Cc1ccc(S(=O)(=O)N2CCN(C(=O)CSc3ncn[nH]3)CC2)cc1,14.8%
10,Cc1ccc(C)c(S(=O)(=O)N2CCN(C(=O)c3ccncc3)CC2)c1,6.02%
11,COc1ccc2[nH]c3ccccc3c2c1,2.66%
12,O=C(CSc1nccc(=O)[nH]1)NCc1ccc(Cl)cc1,-2.95%
13,COC(=O)c1c(C)n(-c2ccc(C)cc2)c2ccc(O)cc12,-3.54%
14,CC(=O)c1c(C)n(-c2ccc(Cl)cc2)c2ccc(O)cc12,12.5%
15,CCn1c(=O)c2sccc2n2c(CCCC(=O)NC3CCN(Cc4ccccc4)CC3)nnc12,-6.43%
16,COC(=O)C1=C(C(=O)OC)[C@@H]2N(Cc3ccccc3)c3ccccc3[C@@]23C[C@@H](C(=O)OC)N(C(=O)COCc2ccccc2)C3=N1,4.76%
17,COc1ccc(NC(=O)CSc2nnc(-c3ccoc3C)n2CC2CCCO2)cc1 (stereo not drawn),-5.04%
18,Cc1cccc(CN2CCCC(C(=O)c3ccc(C(F)(F)F)cc3)C2)n1 (stereo not drawn),-68.2%
19,Cc1nnc(Oc2ccc([N+](=O)[O-])cc2)c2ccccc12,-25.2%
20,CCC(=O)N(CCC(c1ccco1)c1ccccc1OC)Cc1cccs1 (stereo not drawn),-48.1%
21,CC1Cc2ccccc2N1C(=O)COc1nc2ccccc2nc1N1CCOCC1 (stereo not drawn),7.69%
22,O=S(=O)(c1ccc(F)cc1)N1CCCCC1c1cccnc1 (stereo not drawn),-0.138%
23,CC(=O)NC(Cc1ccc(C)cc1)C(=O)NC1CCN(C(=O)c2cnccn2)CC1 (stereo not drawn),8.09%
24,NC(=O)CC(NC(=O)OCc1ccccc1)C(=O)O (stereo not drawn),-22%
25,COc1cc(NC(=O)C(=O)N2CCN(C)CC2)c(OC)cc1Cl,16.4%
26,Cc1ccsc1/C=N/NC(=O)CN1CCN(Cc2ccccc2)CC1,-8.1%
27,CN(CC(=O)NC1CCCc2ccccc21)S(=O)(=O)c1ccc2c(c1)c(=O)n(C)c(=O)n2C (stereo not drawn),4.5%

row,Compound,"hERG current change (%, negative = inhibition) at 10uM"
1,CC(C)(C)c1cc(C(=O)O)n(Cc2ccc(Cl)cc2Cl)n1,-0.322%
2,O=C(NCCN1CCOCC1)c1ccc(CS(=O)(=O)c2ccc(Cl)cc2)o1,-4.24%
3,COc1ccc(CCN2C(=O)N[C@@H](C(C)C)C2=O)cc1,10.5%
4,CCN(CC(=O)NCc1ccc(F)cc1)Cc1nc2ccccc2c(=O)[nH]1,-56.5%
5,O=C(N/N=C/c1ccco1)c1cccc([N+](=O)[O-])c1,3.61%
6,CC(C)C(NC(=O)CN(c1ccc2c(c1)OCCO2)S(=O)(=O)c1ccccc1)C(C)C,-19.9%
7,CCOc1ccccc1NC(C)C(=O)NC(=O)NC1CCCCC1 (stereo not drawn),-14%
8,CC(C)OCC(O)CCc1n[nH]c(=S)n1-c1ccccc1 (stereo not drawn),19.6%
9,CCc1nc2sc3c(=O)[nH]cnc3c2c2c1CSC(C)(C)C2,-6.93%
10,Cc1cc(C)nc(NC(=O)c2c(-c3ccccc3Cl)noc2C)n1,7.94%
11,Clc1ccc(-c2nnc(-c3ccccc3)c(N3CCSCC3)n2)cc1,0.226%
12,COc1cccc(NC(=O)CN2C(=O)C(c3ccc(C)cc3)=NC23CCCCCC3)c1,4.97%
13,Cc1c(C(=O)N2CCCCC2)c(S(=O)(=O)NCCc2ccc(S(N)(=O)=O)cc2)c(C)n1C,-4.09%
14,Cc1cc(/C=N/Nc2nc(N)ncc2[N+](=O)[O-])c(C)n1-c1cccc(C(F)(F)F)c1,27.2%
15,COc1ccccc1NC(=O)CN(c1ccc(C23CC4CC(CC(C4)C2)C3)cc1)S(C)(=O)=O,6.65%
16,CCS(=O)(=O)N1CCN(c2cc3c(cc2[N+](=O)[O-])n(C)c(=O)n3C)CC1,7.13%
17,CCN1CCN(C(=O)c2ccc(CS(=O)Cc3ccc(C)cc3)o2)CC1 (stereo not drawn),11%
18,COc1ccc(-c2nnc(SCC(=O)/C(C#N)=C(\C)N)o2)cc1,-5.99%
19,COc1ccc(-c2ccc(CNCCCN3CCOCC3)o2)cc1Cl.Cl,6.83%
20,COc1ccc(CC2(CO)CCN(Cc3cnn(-c4ccccc4)c3)CC2)cc1,-77.6%
21,CC1(C)Cc2cccc(OCC(=O)Nc3cccnc3Cl)c2O1,-6.78%
22,CCc1cc2c3c(c1)C1(C(=O)N3C(C)(C)CC2C)C(C#N)=C(N)N2C(=C1C#N)Nc1ccccc12 (stereo not drawn),-1.49%
23,COc1ccccc1NC(=O)c1ccc(NS(=O)(=O)c2c(C)noc2C)cc1,-0.229%
24,Cc1ccc(/C=N/Nc2ccc3c(C(F)(F)F)cc(C(F)(F)F)nc3n2)cc1,10.8%
25,Cc1ccc(-n2c(=O)c(C#N)cc3c(=O)n4ccccc4nc32)cc1,2.97%
26,COc1ccccc1-c1cc2nc(C)c(CCC(=O)NCc3ccco3)c(C)n2n1,-43.1%
27,Cc1cc(=O)[nH]c(Nc2c(C)n(C)n(-c3ccccc3)c2=O)n1,2.57%
